Test results published in article PMC12040169 (PLOS Biology, 2025).
The other results are listed elsewhere or left out.

System: T1, C. trachomatis L2/434/Bu expressing GFP (CTL2-GFP)
T1 construct: L2/434/Bu GFP intracellular growth in HeLa cells
Design: species or system HeLa; C. trachomatis total inclusion area by high-content imaging, normalised to DMSO
Conditions: total inclusion area; 28.5 h, 10 µM; inhibitor
In short: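 Following bulk GFP and resorufin fluorescence reads, infected cells were fixed, Hoechst-stained and imaged on a high-content platform. Inclusion total area and number per well served as growth proxies; nuclei counts indicated host viability. MICs were derived as for the fluorescence assay.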

**Q.** For `Brc1cn2ccnc2c(N2CCCC2)n1` [CBK085449], which “% of control remaining” value is on record?
**A.** 98.7513

**Q.** For `C[S+]([O-])CCNC(=O)c1cc2c(Cl)cccc2[nH]1` (stereo not shown) [CBK283304], which “% of control remaining” value is on record?
**A.** 108.892

**Q.** For `COc1ncc(-c2nccnc2NCC(C)O)c(OC)n1` (stereo not shown) [CBK036970], which “% of control remaining” value is on record?
**A.** 125.254

**Q.** How did the “% of control remaining” value turn out when `Cn1c2ccccc2c2nnc(NCCCCO)nc21` [CBK023366] was run?
**A.** 97.7122

**Q.** `O=C(Nc1ccccc1O)c1cc(S(=O)(=O)N2CCCCCC2)ccc1Cl` [CBK264554] was tested. Which “% of control remaining” value did it give?
**A.** 101.821

**Q.** How did the “% of control remaining” value turn out when `CC(=O)c1ccc(-c2nccnc2N[C@@H](CO)C(C)C)s1` [CBK037404] was run?
**A.** 99.1705

**Q.** `COCc1c(Br)c(C)nc(OCC(=O)O)c1C#N` [CBK266532] was tested. Which “% of control remaining” value did it give?
**A.** 77.3976

**Q.** Which “% of control remaining” value does the source give for `C[C@]12CN(CC3CC=CCC3)C[C@H]1C(=O)Nc1ccccc1C(=O)N2` (stereo partly shown) [CBK284738] here?
**A.** 50.9619

**Q.** How did the “% of control remaining” value turn out when `CCn1cc(Cl)c(C(=O)NC2CCN(c3cnccn3)CC2)n1` [CBK306922] was run?
**A.** 78.919

**Q.** With `Cc1ccc(Cl)cc1NC(=O)c1cc([N+](=O)[O-])ccc1NCCN1C(=O)c2ccccc2C1=O` [CBK268501] as the compound, how does the “% of control remaining” value read?
**A.** 105.162

**Q.** Which “% of control remaining” value does the source give for `CC(Oc1cccc(C#N)c1)C(=O)N1CCCC1C(=O)NCC(F)(F)F` (stereo not shown) [CBK305435] here?
**A.** 55.4051

**Q.** How did the “% of control remaining” value turn out when `COc1ccccc1NC(=O)CSCc1nc2ccccc2[nH]1` [CBK268385] was run?
**A.** 126.294

**Q.** For `Cn1ccnc1C1(O)C2CCCC1CN(Cc1ccc(F)c(F)c1)C2` (stereo not shown) [CBK285189], which “% of control remaining” value is on record?
**A.** 88.4456

**Q.** For `CCn1c(=O)sc2cc(Br)ccc21` [CBK026526], which “% of control remaining” value is on record?
**A.** 59.0377

**Q.** Which “% of control remaining” value does the source give for `O=C(O)CCC(=O)N1CCN(C(=O)c2ccco2)CC1` [CBK286533] here?
**A.** 41.6203

**Q.** For `CN(C)C(=O)CO[C@@H]1CO[C@H]2[C@@H]1OC[C@@H]2Nc1nccc(-c2cccs2)n1` [CBK289515], which “% of control remaining” value is on record?
**A.** 77.0984

**Q.** Which “% of control remaining” value does the source give for `Cc1ccc(-c2noc(CN3CCN(c4ccccc4)CC3)n2)cc1` [CBK265924] here?
**A.** 136.356

**Q.** How did the “% of control remaining” value turn out when `NS(=O)(=O)c1ccc(NC(=S)NC(=O)c2cccc3c(Cl)cccc23)cc1` [CBK268814] was run?
**A.** 94.6386

**Q.** `Cc1cc(C)nc(N2CCC(c3cc(CCOc4cccc(C(F)(F)F)c4)[nH]n3)C2)n1` (stereo not shown) [CBK285568] was tested. Which “% of control remaining” value did it give?
**A.** 96.8363

**Q.** How did the “% of control remaining” value turn out when `Cc1cccc(C2(O)CCN(CC(O)c3ccc4c(c3)CCC4)CC2)c1` (stereo not shown) [CBK286330] was run?
**A.** 106.215

**Q.** How did the “% of control remaining” value turn out when `CC1(CNS(=O)(=O)Cc2cc(F)cc(F)c2)COC1` [CBK281413] was run?
**A.** 89.8548

**Q.** How did the “% of control remaining” value turn out when `CC(C)NS(=O)(=O)c1ccc(OCC(=O)Nc2ccc3c(c2)OCO3)c(Cl)c1` [CBK267919] was run?
**A.** 106.824

**Q.** For `CC(=O)c1cccc(-c2cnc(N)c(-c3ccc(O)cc3)n2)c1` [CBK122508], which “% of control remaining” value is on record?
**A.** 102.959

**Q.** `CN1C(=O)COc2ccccc2C/C=C/C[C@@H]2[C@H]1CCCN2C(=O)CCCNc1ncccn1` [CBK292168] was tested. Which “% of control remaining” value did it give?
**A.** 106.769

**Q.** How did the “% of control remaining” value turn out when `Cc1ccc2c(c1)C(NC(=O)C1CCN(S(C)(=O)=O)CC1)CC(C)(C)O2` (stereo not shown) [CBK307604] was run?
**A.** 57.6791

**Q.** How did the “% of control remaining” value turn out when `CC(C)NC(=O)[C@H]1CN2CCC1C[C@@H]2Cn1cc(C2(O)CCCC2)nn1` (stereo partly shown) [CBK289090] was run?
**A.** 109.445

**Q.** With `Cc1cc(Cl)cc(Cl)c1OCCCc1c(C)n[nH]c1C` [CBK025733C] as the compound, how does the “% of control remaining” value read?
**A.** 28.1784

**Q.** For `O=C(NCc1ccco1)c1nn(-c2nc3ccccc3s2)c2ccccc12` [CBK048482], which “% of control remaining” value is on record?
**A.** 123.996

**Q.** For `Oc1cccnc1N1CCNCC1` [CBK045850], which “% of control remaining” value is on record?
**A.** 48.0979

**Q.** `Clc1ccc(SCc2cccc(CSc3ccc(Cl)c(Cl)c3)n2)cc1Cl` [CBK223404] was tested. Which “% of control remaining” value did it give?
**A.** 90.5178

**Q.** `O=C(Nc1ccccc1N1CCN(C(=O)c2ccc(Cl)cc2)CC1)c1ccc(-c2cc3ccccc3oc2=O)cc1` [CBK267280] was tested. Which “% of control remaining” value did it give?
**A.** 111.56

**Q.** For `c1ccc(-c2ccccc2CN2CCC(Oc3nccnc3OCCN3CCOCC3)CC2)cc1` [CBK082924T], which “% of control remaining” value is on record?
**A.** 81.8985

**Q.** With `Cc1[nH]c2ccccc2c1C(=O)CSc1nncc2ccccc12` [CBK297912] as the compound, how does the “% of control remaining” value read?
**A.** 88.7797

**Q.** For `Oc1c(Cl)cc(Cl)cc1/C=N/c1ccc(-c2nc3ccc(/N=C/c4cc(Cl)cc(Cl)c4O)cc3[nH]2)cc1` [CBK261660], which “% of control remaining” value is on record?
**A.** 109.12

**Q.** With `O=C(c1cccc2ncccc12)N1CCN(CC2CCOC2)CC1` (stereo not shown) [CBK305140] as the compound, how does the “% of control remaining” value read?
**A.** 47.5479

**Q.** `N=C(N)NC(=N)NCCc1c[nH]c2ccccc12` [CBK267706G] was tested. Which “% of control remaining” value did it give?
**A.** 82.0213

**Q.** Which “% of control remaining” value does the source give for `CSc1nc(=O)c(CCC(=O)O)n[nH]1` [CBK019689] here?
**A.** 72.977

**Q.** `CC(C)(C)C1=CC2=NC3(CCC3)[C@@H]3C[C@@H](O)[C@@H](O)[C@@H]3N2O1` [CBK303243] was tested. Which “% of control remaining” value did it give?
**A.** 92.1149

**Q.** Which “% of control remaining” value does the source give for `CCCc1[nH]nc(O)c1Cc1cc(C(F)(F)F)ccc1Cl` [CBK075032] here?
**A.** 80.7239

**Q.** With `Cc1cccc(OCC(=O)NCCCc2ccccc2)c1C` [CBK265507] as the compound, how does the “% of control remaining” value read?
**A.** 97.992
